± gives the standard deviation of the averaged measurements. The list shows a part of the results.
The sequences below were run on PfAP2-I AP2 domain 3 (GST-tagged) (assay: gcPBM binding intensity (ln(normalized median fluorescence intensity)); higher = stronger DNA binding).
Outline: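 The binding buffer was 1× PBS containing 1% milk, 0.2 mg/ml BSA, 0.5% salmon testes DNA and 0.03% Triton X-100. In it, GST-tagged P. falciparum DNA-binding domains expressed in E. coli were applied for 1 h to an Agilent 4 × 180k array of primer-extended double-stranded 36-bp intergenic genomic probes plus negative controls. Binding intensity, read with Alexa488 anti-GST antibody and a 488 nm scan, is the highest Masliner-normalised natural-log median intensity across replicate spots of either probe orientation.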

Row | Sequence | gcPBM binding intensity (ln)
1 | ACCTGGACAAAAATAAATAAATAAATAAATAAATGA [GTGCAC_negctrl_site238] | 7.88 ± 0.4
2 | ACATTAAGACACATTGCACACGTGCACCCATAGAAA [CACACA_site8029] | 10.965 ± 0.007
3 | TTTTGGATCATTTGTTGTACATATGCAAAAAAAAAA [XGTACX_site3157] | 8.25 ± 0.37
4 | TATGATACATAATATACATGCATACACAACATTCAG [TGCATGCA_site487] | 7.87 ± 0.56
5 | GATATGTGACGTTTGGTATTTTTGATGTTGGTAGGA [CACACA_negctrl_site1448] | 7.72 ± 0.61
6 | GCCCAACCAAAATATACACACAGTTGAATGAATAAA [CACACA_site2597] | 7.73 ± 0.44
7 | TATATTTGGAAATATTCTCAATTGGTACAAATAAAA [CACACA_negctrl_site1202] | 8.14 ± 0.2
8 | TAAAAGAAATATACATGTACATAAATATATATATAT [XGTACX_site1276] | 9.085 ± 0.064
9 | ATTTTTTTGTGTTTGGTACACACGTTATAAAAAATA [CACACA_site1345] | 8.13 ± 0.3
10 | TTGGTAATAATTTGAGGTACACTGTATAAATTTTTT [XGTACX_site909] | 7.83 ± 0.46
11 | AATAATAAATTATGGTGTACGCATTTGTATATATAC [XGTACX_site5417] | 8.16 ± 0.2
12 | TTTTTTTCTTAAAGATGTACTTTTTTAAAATAATCT [XGTACX_site3663] | 7.76 ± 0.46
13 | AAATGAAAATAAAGCAACAGAAATATAATGTATTAT [GTGCAC_negctrl_site508] | 7.96 ± 0.7
14 | ACATTTTATACGATAAAATGTATAAGATTATGAAGA [TGCATGCA_negctrl_site476] | 7.67 ± 0.49
15 | AAAATAATAACATTGTGTACATAAAAAGAAAACCTT [XGTACX_site840] | 7.96 ± 0.49
16 | TTATGTCATAAATGCACACATATATATATACATATA [CACACA_site1588] | 9.8 ± 0.28
17 | AGGCACGTGTTATATACACACATAATCAAATAAACT [CACACA_site7852] | 8.11 ± 0.61
18 | TATGAATGGTTAAGTACACACATATTAATATATGTA [CACACA_site3490] | 7.76 ± 0.028
19 | CTATCTACATAAACGTGTACCCACAAATAAATAAAT [XGTACX_site5210] | 8.89 ± 0.33
20 | TTAACCTTTTGATATTGTACCCATAATCTAATACAA [XGTACX_site769] | 7.99 ± 0.61
21 | TTTTTTAAAAAAGTTTTCTGTATTTATATATATATA [CACACA_negctrl_site31] | 9.275 ± 0.049
22 | TCATATGTATAAATTAGTACATATTTAATGGATATA [XGTACX_site3298] | 7.59 ± 0.44

Row | Sequence | gcPBM binding intensity (ln)
23 | ATAAATTTATCCAAGTGTACAAAGCTAACATTTTTT [XGTACX_site4399] | 7.77 ± 0.61
24 | CATCCTATTACTTGGTGTACTATTTTATATTGAATA [XGTACX_site1050] | 8.17 ± 0.52
25 | ATAAACAAGACGCAACAAAGTAGAAATTAAAAATAA [CACACA_negctrl_site345] | 7.58 ± 0.7
26 | AAAAATGGAATTATCTGTACATATATAGTTTTTAAA [XGTACX_site5580] | 7.44 ± 0.33
27 | GTTTATAAAATAAGAAGTACTTTATGAGAACCATAT [XGTACX_site5789] | 7.94 ± 0.41
28 | TGGTACCTTACTTTTACACACTTTTTTTTTTTTTTT [CACACA_site1557] | 8.35 ± 0.59
29 | TTTTGAGTAGCCTATTGTACGAACTTTTTAAATACA [XGTACX_site1224] | 7.67 ± 0.4
30 | CCATTTTAAATATGCACACAGATGCACTAACACATT [CACACA_site5099] | 10.4 ± 0.11
31 | AATATATACGCATGCGCACACACAAGTGGGAAATTT [CACACA_site1786] | 8.38 ± 0.71
32 | CACCCATAAATATACACACGCACAACACAAAATAAA [CACACA_site2903] | 8.24 ± 0.21
33 | ATATATATATATACATGTACAAATGTATAACAAATG [XGTACX_site145] | 9.02 ± 0.51
34 | TTTTTTTACAACATTACACACAAATATTCTGTGTTA [CACACA_site5957] | 7.94 ± 0.76
35 | AACATTTTAAAACAGACACACACCAAAAAAAAAAAA [CACACA_site257] | 8.14 ± 0.78
36 | AATCGTGTTCTGAATACACACTAATACAAATTTGTA [CACACA_site6058] | 7.86 ± 0.7
37 | AACAAAAATAATAATCAAATAAATAAATGAAAACAT [CACACA_negctrl_site456] | 7.78 ± 0.61
38 | AGAAAATTAAAAAGAACACACAAATATATATATAAT [CACACA_site5896] | 7.63 ± 0.66
39 | ATATTACAACATTTTATACACACGTGATTATTAATT [CACACA_site2877] | 7.93 ± 0.57
40 | TGATACTTATGATAAATACACACTTGAAATTAAGGA [CACACA_site1152] | 7.59 ± 0.71
41 | ATGATATACGTAAACACACAAATAAAAAAAATTTAT [CACACA_site7544] | 7.8 ± 0.47
42 | TATATAGCATATTTCACACACACATAATGAATATTA [CACACA_site3546] | 7.7 ± 0.36
43 | TTAAAAAGAAAGTTCACACACATATAGATGACGGAA [CACACA_site7268] | 7.92 ± 0.73
44 | TTTTTTAGTTTTTAGTGTACATAAATAAATAAATAA [XGTACX_site2843] | 8.29 ± 0.64

Row | Sequence | gcPBM binding intensity (ln)
45 | AATAATCATAGTTCTACACACCTATATTGCAAAAAA [CACACA_site867] | 8.08 ± 0.49
46 | GGTTCATATATTAACACACACATACATATTATATAT [CACACA_site2937] | 8.1 ± 0.47
47 | TGAGAGAGAAACGTAGTGCATAAAATCAAATTTAGA [GTGCAC_site9737] | 10.6 ± 0.33
48 | TTATAAAAAATTTTAGTGCATATATGATTTATATAT [GTGCAC_site9831] | 10.1 ± 0.33
49 | TAATATGTATTTACAAGTACTAACAAAATATTAAAA [XGTACX_site3379] | 7.79 ± 0.3
50 | TACAAAAATAAATGTTGTACTATTATTTATTTCGAT [XGTACX_site1048] | 7.45 ± 0.23
51 | TTCATTAAATAGAACAAAATAATAATATAACAACAA [GTGCAC_negctrl_site116] | 7.74 ± 0.53
52 | TTAAAGATATACAAAAGTACTTTTTTTTTCGTCATT [XGTACX_site384] | 7.58 ± 0.34
53 | CCATATCTTTTTTGCACACACTACAATAAAACAAAA [CACACA_site4995] | 9.95 ± 0.2
54 | ACATACATACACCCACGTACGTACCGAAACACCACC [XGTACX_site1212] | 8.9 ± 0.42
55 | GATATAATGTGTTTGGTATTCTTGATAGATAGTTTT [CACACA_negctrl_site1711] | 7.7 ± 0.47
56 | ATGATGTCTTTATATTGTACATATATGAAGACGTTA [XGTACX_site7751] | 7.79 ± 0.29
57 | TTTAAATAAAATATTACACACTTAGAAAAATATATA [CACACA_site3663] | 7.42 ± 0.51
58 | ACTTCAAAAATAAACTGTACGTAAAAAAAAAAAAAA [XGTACX_site795] | 8.32 ± 0.31
59 | TTTCTTTTTTTTTTTGTATATTAAATCTAAAAAGGA [TGCATGCA_negctrl_site431] | 7.47 ± 0.3
60 | TTTCGTAAAATGAAATGTACTCAAAAGTAAATATAA [XGTACX_site214] | 7.63 ± 0.43
61 | AAATTAAAATAATAATTCTACAAATTAATTTATCAT [XGTACX_negctrl_site44] | 7.29 ± 0.51
62 | TATCAAATGTATATATGTACTTATATTTTTTTTATA [XGTACX_site1501] | 7.63 ± 0.27
63 | AATATATTTTCCTGCAAACACACATATAAATGTGTA [CACACA_site532] | 8.37 ± 0.83
64 | TATATTACAAAAAGTACACACATAAATAAATACATA [CACACA_site975] | 7.97 ± 0.22
65 | ATGCTCAAAAGATATGCATGTACAAATATATGAAAT [TGCATGCA_site592] | 7.87 ± 0.68
66 | TTTTATGATAATTTTGCACACACTTAGGAAAAATTA [CACACA_site1556] | 9.27 ± 0.099

Row | Sequence | gcPBM binding intensity (ln)
67 | TTTATTTAATTCATTGCATGTAATTTTTGTGTCCAC [TGCATGCA_site677] | 7.83 ± 0.71
68 | TTAAAAAAAAATGGCACACATTTTAATTTTATGTTT [CACACA_site5035] | 7.75 ± 0.33
69 | AGAATAAAAAGGAACACACACACACGCATATAAATA [CACACA_site7659] | 7.95 ± 0.49
70 | GTAATATTATAATATACACACATAGAATATAAATAT [CACACA_site6333] | 7.89 ± 0.29
71 | TTCAAGATTTATTATACACACATATTAATATATATA [CACACA_site573] | 8.01 ± 0.33
72 | AAAATACACCAACACACACACATATATATATATATT [CACACA_site4149] | 8.04 ± 0.38
73 | TTATTTTTTCTTTTTTTTCTTACCACAAAAATGGAT [CACACA_negctrl_site362] | 7.67 ± 0.76
74 | ATTTATTTATATAATACACACAAATATCTTAATGAA [CACACA_site6064] | 7.58 ± 0.29
75 | ATTTTTTCTAATGGGTGTACTGAAACGTATTTTATT [XGTACX_site6573] | 8.16 ± 0.58
76 | ATTTGTAATTATTAAACACACACAAAATATATATAA [CACACA_site8804] | 7.81 ± 0.65
77 | AAAAAAAAAAAAAACACACACATATCTATAATATAT [CACACA_site7481] | 8.1 ± 0.29
78 | TTGTGATTATATAATCGTACATAATTTTAATCACAC [XGTACX_site398] | 7.81 ± 0.28
79 | CAAAACAAAGTTGCCGCACACAGATACGCACCCAAG [CACACA_site3455] | 9.775 ± 0.078
80 | GAATATAAACATATTACACACATCTATATGTACTTT [CACACA_site8582] | 7.82 ± 0.67
81 | AAATAAATATATATATGTACATACAAATACACGGTA [XGTACX_site8510] | 7.92 ± 0.59
82 | AAGAAAAATGTCATATGATATCATATATTTTATAAT [TGCATGCA_negctrl_site296] | 7.36 ± 0.54
83 | ATTTTCCCTTGTTTTACACACGTGCTGATATGAGAT [CACACA_site2164] | 8.88 ± 0.99
84 | AATTATGCATTTGTCACACATATATATTACACTTGC [CACACA_site5324] | 8.23 ± 0.49
85 | AAAAAAAAAAAAAAATGTACATTATACACATTATAT [XGTACX_site6824] | 8.17 ± 0.31
86 | TAGCCAAAATATAATTTACACACTTATTAAATAATT [CACACA_site7963] | 7.46 ± 0.38
87 | ATATAATATTGAGTTTGTACATATATATATGAAGAT [XGTACX_site4444] | 7.88 ± 0.35
88 | AAACAAATGTACAAAGTGCATATTTTTTTCAAAAGG | 8.97 ± 0.085

From the supplement of paper PMC11417369
